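Five compound concentrations were applied to cells in 96-well plates for 48 hours; endpoints were derived by simple linear interpolation of the resulting dose-response curve. GI50 is the concentration that inhibits growth by half.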 Calls of active or inactive are those of the source. Cut-off read from the data, not from the text of the source: active = GI50 up to about 1.1 µM and inactive = higher.
test system: NCI-H322M; assay: NCI anticancer screen, dose series, 48 h

Compound	GI50
N#CC1=C(c2ccccc2)NNC(c2ccc(Cl)cc2)CC1=O (stereo not drawn)	inactive: 36.7 µM
Cc1cc2c3c(ccc4[nH]cc(c43)CN2c2ccc(NS(C)(=O)=O)cc2)n1	inactive: 12.6 µM
Cc1cc(C2CC(O)C(CO)O2)c(F)cc1F (stereo not drawn)	inactive: > 100 µM
C=CNC(=S)n1nc(-c2ccccc2NC(=O)C(F)(F)F)c(=O)n(C(=S)NC=C)c1=S	inactive: 38.6 µM
COc1cc(COC(=O)N(C)[C@@H](Cc2ccccc2)C(=O)O)c([N+](=O)[O-])cc1OC	inactive: > 100 µM
NC(=O)N/N=C(\CC1OC(=O)c2ccccc21)c1ccco1 (stereo not drawn)	inactive: > 100 µM
C=CC(=C)CCC(Br)C(C)(C)Br (stereo not drawn)	inactive: > 100 µM
CC(C)CS(=O)(=O)/C(=C(\c1ccc(Br)cc1)S(=O)(=O)CC(C)C)c1ccc(Br)cc1	inactive: > 100 µM
CCOP12(OCC)NC(=O)OC1(C(F)(F)F)c1ccccc1O2 (stereo not drawn)	inactive: > 100 µM
CCCCCCC1OC23OC1CCC2C(O)CCC3O (stereo not drawn)	inactive: > 100 µM
CC(=O)Nc1ccc(C2SCc3nc4ccccc4n32)cc1 (stereo not drawn)	inactive: > 100 µM
CC1(C)O[C@@H]([C@H](O)CO)[C@H](O)[C@@H](C2SCCCS2)O1	inactive: > 100 µM
N#CC(NCc1cccc(CNC(C#N)c2ccccc2)c1)c1ccccc1 (stereo not drawn)	inactive: 30.7 µM
N#Cc1c(-c2ccccc2)cc(Nc2cccc(C(F)(F)F)c2)n2c1nc1ccccc12	inactive: 1.92 µM
CC(C)=CCC/C(C)=C/CC/C(C)=C/CC/C(C)=C/CC/C(C)=C\CC/C(C)=C/CC/C(C)=C/CC/C(C)=C/Cc1cc(O)ccc1O	inactive: 6.27 µM
CN1C(OCc2ccccc2)c2c(ccc3c2OCO3)C2C=Cc3cc4c(cc3C21)OCO4 (stereo not drawn)	inactive: 1.23 µM
SC1=NNC2(C(S)=N1)c1ccccc1-c1ccccc12	inactive: > 10 µM
SC[C@@H]1COC[C@H](CS)S1	inactive: > 100 µM
O=C1c2ccccc2NC2C(O)c3ccccc3N12 (stereo not drawn)	inactive: 47.9 µM
O=C1CC(=O)NC(NN2C(=O)CSC2c2ccccc2)=N1 (stereo not drawn)	inactive: > 100 µM
CN(C)S(=O)(=O)c1ccc2c(c1)/C(=C1/Nc3ccccc3C1=O)C(=O)N2	inactive: 40.8 µM
CC(=O)N1C(CCc2ccccc2)CC(C)(C=O)C1Cc1ccc(O[Si](C(C)C)(C(C)C)C(C)C)cc1 (stereo not drawn)	inactive: 9.77 µM
CC1(C)O[C@@H](CCl)C[C@@H](C#N)O1	inactive: > 100 µM
COc1cc2c3c(c1OC)-c1ccccc1C(C(OC(C)=O)c1ccccc1)C3N(C)CC2 (stereo not drawn)	inactive: > 100 µM

Compound	GI50
CC1(C)CCCC2OC2CCC(C)(C)C1=O (stereo not drawn)	inactive: > 100 µM
COC(=O)C(/C(=N/N)C(=O)Nc1ccc(C)c(C)c1)c1nc2ccc(Cl)cc2nc1O (stereo not drawn)	inactive: > 100 µM
COC(=O)/C=C1\C(=O)N(C(C)=O)c2ccc(Br)cc21	inactive: 18.5 µM
O=C1NC(c2c(Cl)cccc2Cl)Nc2ccccc21 (stereo not drawn)	inactive: 56.2 µM
CO/C(N)=C(C#N)/N=C/c1cccnc1	inactive: > 100 µM
CC(=O)CN(Cc1cc(C)c2c(c1)c1ccccc1n2Cc1ccccc1)S(=O)(=O)c1ccc(C)cc1	inactive: > 100 µM
CC[P+]1(CC)CCCC1	inactive: > 100 µM
O=C1c2ccccc2-c2nc(-c3ccncc3)cc3c2c1nc1ccccc13	inactive: 27.9 µM
CCN(CC)CCNc1c2ccccc2nc2cccc([N+](=O)[O-])c12	active: 0.0131 µM
OCCNCNc1nc(NCNCCO)nc(N(CNCCO)CNCCO)n1	inactive: 43.5 µM
O=P(Nc1ccccc1)(Oc1ccccc1)N(CCCl)CCCl (stereo not drawn)	inactive: > 100 µM
Cc1ccc(/N=N/c2ccc(O)c(CN(C)C)c2)cc1C	inactive: 31.4 µM
c1ccc(/N=C2\c3ccsc3/C(=N/c3ccccc3)c3ccsc32)cc1	inactive: 2.78 µM
CC1(C)N=c2[nH]cnc2=C(C(N)=O)N1	inactive: > 100 µM
COC(=O)C(C)(C)[C@@H]1OC(=O)N(S(=O)(=O)c2c(C)cc(C)cc2C)[C@H]1C(C)C	inactive: > 100 µM
COC(=O)CCC(NC(=S)N/N=C(\C)c1ccccn1)C(=O)OC (stereo not drawn)	inactive: 59.8 µM
Cc1ccc(/C=C/C(=O)Oc2ccc(/C=C3\CCC/C(=C\c4ccc(OC(=O)/C=C/c5ccc(C)cc5)cc4)C3=O)cc2)cc1	inactive: > 100 µM
CN(CCO)c1nc(N)cc(=O)[nH]1	inactive: > 100 µM
CCOC(=O)CCCSCCCC(=O)CCCSCCCC(=O)OCC	inactive: > 100 µM
COc1ccc2c3c(c(=O)n(C)c2c1OC)C=CC(C)(C)O3	inactive: 89.9 µM
C=C(C)C(O)C(O)C[C@@H](C)C1CC[C@]23C[C@]12CCC1[C@@]2(C)CCC(OC(C)=O)C(C)(C)C2CC(OC2OC(CO)C(O)C(O)C2O)[C@]13C (stereo partly drawn)	inactive: 21.8 µM
O=C(O)CN(c1ccc(Cl)cc1)S(=O)(=O)c1ccccc1	inactive: > 100 µM
Cc1cc(C)c2c(O)cc(-c3cccc(F)c3)nc2n1	active: 0.224 µM
N#CC(C#N)=C(N)/C(C#N)=C/c1cc(O)c(O)c(Br)c1	inactive: 52 µM

Reference: ChEMBL document CHEMBL1201862, “PubChem BioAssay data set” (2004)
